Source: PubChem BioAssay AID1508642 (National Center for Advancing Translational Sciences (NCATS), 2021)
Out of some 43,000 compounds screened, about 200 (0.47%) were called active. Another 12% or so got no clear call; they are omitted. Calls come from the whole dose curve; as a rule, active = well fitted cell-killing curve with a large enough effect; inconclusive = small, poorly fitted or top-dose-only effect, or effect the other way; inactive = flat fitted curve, though single readings scatter. This is one part of the list.

Assay: Cell viability qHTS assay in S16 Pmp22-F2sN cells; note: nearly all actives have a fitted effect of over 65% in size
Conditions: S16 Pmp22-F2sN Schwann cells (luciferase reporters placed in the Pmp22 gene) viability, CellTiter-Glo, 24 h; series mostly up to 57.5 µM; activity change, negative = cytotoxicity: at the top concentration
Method in brief: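 Seed 500-1,000 S16 Pmp22-F2sN cells per well in phenol-red-free DMEM with 10% heat-inactivated FBS; pin-add 23 nL compound; incubate 24 h at 37C; add CellTiter-Glo, wait 15 min protected from light; read luminescence.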
% is set by controls: 0 for no effect and ±100 for the full control effect.

Compound	activity change, negative = cytotoxicity
CC(C)c1ccc(NC(=O)C2CCN(S(=O)(=O)c3cccc4nsnc34)CC2)cc1	inactive: 18.6%
O=C(Cn1ccn(-c2cccc(Cl)c2)c(=O)c1=O)NCCc1ccccc1	inactive: 0.0885%
Cc1c(C(=O)Nc2nc(-c3ccc(F)cc3)ns2)oc2ccc(Br)cc12	inactive: 11.5%
COc1ccc(NC(=O)NC2COc3ccccc3C2)c(OC)c1 (stereo not given)	inactive: 12.5%
CC1CCN(c2nnc(-n3cccc3CNc3cccc(F)c3)s2)CC1	inactive: -4.38%
CCOc1ccc(-n2cc(C(=O)Nc3ccccc3OCC)c3cc(OC)c(OC)cc3c2=O)cc1	inactive: -1.91%
COc1cc2ccccc2cc1C(=O)N1CCN(c2nc3c(C)cc(C)cc3s2)CC1	inactive: 6.75%
O=C(C1CCC1)N1CCc2cc(S(=O)(=O)N3CCN(c4ccccc4)CC3)ccc21	inactive: 1.56%
CC1CCN(C(=O)Cn2cc(SCc3cccc(F)c3)c3ccccc32)CC1	inactive: -18.2%
CCOC(=O)c1c(NC(=O)CS(=O)(=O)c2ccc(C)cc2)sc2c1CCC(C)C2 (stereo not given)	inactive: 2.03%
CCc1ccccc1NC(=O)N1CCN(c2nnc(C)c3c(C)n(-c4ccccc4)nc23)CC1	inactive: 3.02%
Cc1ccc2nc(-c3ccccc3O)c(Nc3ccccc3C)n2c1	inactive: 0.993%
CCC(C)NC(=O)Cn1c(=O)n(CC2CCC(C(=O)NC)CC2)c(=O)c2sccc21 (stereo not given)	inactive: -0.223%
CC1CCN(C(=O)Cn2cc(SCc3ccccc3)c3ccccc32)CC1	inactive: -19.7%
CC(C)c1ccc(NC(=O)c2ccc(F)c(S(=O)(=O)N3CCCC3)c2)cc1	inactive: 15.5%
O=C(COc1ccccc1F)Nc1ccccc1OCc1cc(=O)n2ccccc2n1	inactive: 5.33%
CCCc1nnc(N2C(=O)c3oc4ccc(F)cc4c(=O)c3C2c2ccc(C(=O)OC)cc2)s1 (stereo not given)	inactive: 5.07%
COc1ccccc1OCC(=O)Nc1nnc2n1CCS2	inactive: 11.5%
COc1ccc(-n2c(=O)c3ccccc3n(CC(=O)NCCc3ccccc3)c2=O)c(OC)c1	inactive: -11.4%
Cc1ccc(NC(=O)CCc2c(C)nc3c(-c4ccccc4)c(C)nn3c2C)c(C)c1	inactive: 10.3%
CC1CCN(S(=O)(=O)c2cn(CC(=O)Nc3ccc(F)c(Cl)c3)c(=O)c3ccccc23)CC1	inactive: -28%
Cc1cccc(-n2cc(-c3ccccc3)c3c(NC(C)C)ncnc32)c1	inactive: -16.6%
COc1ccc2c(c1)CCc1sc(NC(=O)c3ccc(Cl)cc3)nc1-2	inactive: -20.7%
CCC1=Nc2cc(C(=O)NC(C)c3ccccc3)ccc2Sc2ccc(Cl)cc21 (stereo not given)	inactive: -4.43%

Compound	activity change, negative = cytotoxicity
COCCCNC(=O)CN1C(=O)COc2ccc(S(=O)(=O)N3CCCCCC3)cc21	inactive: 22.2%
COC(=O)c1ccccc1NC(=O)CN(c1ccccc1OC)S(C)(=O)=O	inactive: 1.49%
Cc1ccc(NC(=O)CSc2nc(-c3ccc(F)cc3)nc3c2Cc2c(CO)cnc(C)c2O3)cc1C	inactive: -0.181%
CN(Cc1ccccc1)C(=O)CCS(=O)(=O)c1cc(Br)cc2c1N(C(=O)C1CC1)CC2	inactive: 5.02%
O=C(CSc1nccn1-c1cccc(Cl)c1)Nc1cccc(C(F)(F)F)c1	inactive: -0.672%
O=C(COc1ccc(Cl)cc1)Nc1sc2c(c1C(=O)Nc1cccc(Cl)c1)CCCC2	inactive: 5.37%
Cc1cccc(C)c1-n1ncc(C(=O)NCc2ccc3c(c2)OCO3)c1C1CCN(C(=O)OC(C)(C)C)CC1	inactive: 20.2%
CCc1ccc(OCC(=O)N(Cc2ccc(C)cc2)Cc2ccco2)cc1	inactive: 7.58%
Cc1cccc(OCC(=O)Nc2nonc2-c2ccc(Br)cc2)c1C	inactive: -2.27%
O=C(Nc1ccc(OC(F)(F)F)cc1)C1CCCN(S(=O)(=O)c2cccc3nonc23)C1 (stereo not given)	inactive: 14%
CC(=O)N1c2ccc(S(=O)(=O)NCC3CCC(C(=O)Nc4ccccc4C)CC3)cc2CC1C (stereo not given)	inactive: -8.45%
CCCCN(C)CCCNC(=O)c1cc(=O)[nH]c2ccc(S(=O)(=O)N3CCCCC3)cc12	inactive: -4.29%
CCNc1ccc(-c2nc(-c3ccncc3)no2)cc1[N+](=O)[O-]	inactive: -2.54%
COc1ccc(C(=O)NCCn2cc(SCC(=O)Nc3ccc(F)cc3)c3ccccc32)cc1	inactive: -3.01%
COc1cc(NC(=O)Cn2cnc3sc(C)c(S(=O)(=O)N4CCC(C)CC4)c3c2=O)cc(OC)c1OC	inactive: 1.01%
Cc1ccc2c(=O)c(C(=O)c3ccccc3)cn(CC(=O)Nc3ccccc3C)c2n1	inactive: -2.19%
Cc1nc(-c2ccc(S(=O)(=O)NCc3ccc(OC(C)C)cc3)cc2)co1	inactive: -1.7%
O=C(COc1ccccc1F)Nc1ccc2nc(SCC(=O)N3CCCC3)sc2c1	inactive: 1.46%
CCn1cc(C(=O)NCCc2ccc(Cl)cc2)c(=O)c2cc(S(=O)(=O)N3CCCCCC3)ccc21	inactive: 12.8%
Cc1nn(CCCC(=O)Nc2cccc(C(F)(F)F)c2)c(=O)c2nn(-c3ccccc3)c(C)c12	inactive: 16.8%
Cc1ccc(Cn2c(CNC(=O)Cc3cccc([N+](=O)[O-])c3)nc3cccnc32)cc1	inactive: -5.32%
O=c1c2ccccc2n(Cc2c(F)cccc2Cl)c(=O)n1Cc1ccccc1	inactive: -12.3%
COCc1nc2ccccc2n1Cc1cccc(C)c1	inactive: 14.8%
CCn1c(=N)c(C(=O)NCC2CCCO2)cc2c(=O)n3cc(C)ccc3nc21 (stereo not given)	inactive: 14.6%

Compound	activity change, negative = cytotoxicity
CCc1ccccc1NC(=O)CN1C(=O)c2cccnc2Sc2ccccc21	inactive: 9.91%
CCn1c(=O)c2sccc2n2c(CCC(=O)Nc3ccc(OC)cc3OC)nnc12	inactive: 2.52%
CCCCOc1ccc(CNC(=O)C2CCCN(c3nnc(-n4c(C)ccc4C)s3)C2)cc1 (stereo not given)	inactive: -7.54%
Cc1ccc(S(=O)(=O)N2CCN(Cc3ccc4c(c3)OCO4)CC2)cc1	inactive: 5.51%
CCc1ccc(-c2cc(C)no2)cc1S(=O)(=O)Nc1cc(OC)c(OC)c(OC)c1	inactive: -11.7%
COc1ccc(C2=C(C)C(=NCc3ccc(OC(C)C)cc3)NS2(=O)=O)cc1	inactive: 1.71%
Cc1ccc2c(c1)sc1nc(=O)n(-c3ccc(Cl)c(Cl)c3)c(=O)n12	inactive: 9.04%
O=C(CSc1nc2ccccc2nc1Cc1ccccc1F)Nc1cccc(C(F)(F)F)c1	inactive: 4.41%
COc1ccc(-c2onc(C)c2C)cc1S(=O)(=O)Nc1cc(Cl)ccc1C	inactive: -17.2%
Cc1ccc(NC(=O)Cn2c(=O)oc3cc(S(=O)(=O)N4CCCCC4)ccc32)c(C)c1	inactive: -16.5%
CCC(=O)Nc1ccc(CC)cc1-c1nc2ccccc2n(CC(=O)Nc2ccccc2C)c1=O	inactive: 11%
CCN(CC)c1ccc(NC(=O)CCS(=O)(=O)c2ccc3c(c2)oc(=O)n3C)c(C)c1	inactive: 2.91%
COC(=O)c1ccccc1NC(=O)c1cc(CN2CCOCC2)on1	inactive: 6.89%
CCc1cccc(C)c1Nc1c(-c2cccs2)nc2nc(C)cc(C)n12	inactive: 7.84%
COc1cc(C(=O)Nc2ccc(-c3nc4ccccc4o3)c(O)c2)cc(OC)c1OC	inactive: 16%
Cc1cn2c(=O)cc(COC(=O)c3ccc(NC(=O)COc4ccc(C)c(C)c4)cc3)nc2s1	inactive: 5.39%
CCc1ccccc1NC(=O)CSc1nnc(COc2ccccc2Cl)o1	inactive: 13.4%
CCOc1ccc(-c2cc(C(=O)NCCCOC)c3c(-c4ccc(CC)cc4)[nH]nc3n2)cc1	inactive: 28.9%
COc1cc2c(cc1OC)C(COc1ccc(F)cc1)N(C(=O)Cc1ccccc1)CC2 (stereo not given)	inactive: 3.28%
CC(C)OCCCn1c(=O)c2ccccc2n2c(-c3cc(Cl)ccc3O)nnc12	inactive: -1.26%
CCOc1ccccc1NC(=O)N1CCc2c(sc3c2CCCC3)C1c1ccccc1 (stereo not given)	inactive: 0.519%
CCOc1ccccc1C(=O)N1CC(=O)Nc2ccc(C)cc2C1c1ccccc1 (stereo not given)	inactive: 3.2%
COc1ccc(NC(=O)Nc2cc(-c3cn4cccnc4n3)ccc2OC)cc1	inactive: 20.2%
Brc1ccc2c(c1)NC(c1cccnc1)=NC(c1ccccc1)=N2	inactive: 11.2%

Compound	activity change, negative = cytotoxicity
Cc1nn2c(=O)cc(COc3ccc(/C=C(\C#N)C(=O)Nc4ccccc4)cc3Cl)nc2s1	inactive: 10.9%
O=C(OCc1ccccc1Cl)c1ccc(-c2nnn(Cc3ccc(F)cc3)n2)cc1	inactive: -0.124%
O=c1cc(-c2ccccc2)n2c(SCc3ccc(Br)cc3)nnc2[nH]1	inactive: -1.5%
CCOc1ccccc1NC(=O)CSC1=Nc2ccccc2C2=NC(CC(=O)NCc3ccc4c(c3)OCO4)C(=O)N12 (stereo not given)	inactive: 2.62%
Cc1nn(CC(=O)NCCc2ccccc2)c(=O)c2c1sc1ccccc12	inactive: -14.3%
CC(=O)N1c2ccc(S(=O)(=O)N(C)CC(=O)N(Cc3ccccc3)C(C)C)cc2CC1C (stereo not given)	inactive: -0.37%
CC(C)(C)c1ccc(C(=O)N2CCN(CCc3ccccn3)CC2)cc1	inactive: 3.62%
O=C(Cc1ccccc1)Nc1nnc2n1CCS2	inactive: -3.15%
CCN(Cc1ccccc1)Cc1c(O)ccc2oc(C)c(C(=O)Nc3ccccc3C)c12	inactive: -17.4%
CCC(C)NC(=O)Cn1c(=O)n(-c2ccc(C)c(C)c2)c(=O)c2c(C)c(C(=O)N(CC)CC)sc21 (stereo not given)	inactive: 8.26%
CCCCSCCCNC(=O)c1c[nH]c2ccc(S(=O)(=O)Nc3cccc(OC)c3)cc2c1=O	inactive: -6.98%
Cc1cc2nc(N(Cc3cccnc3)C(=O)c3ccc(Cl)s3)sc2cc1C	inactive: 4.24%
Cc1ccc(S(=O)(=O)NCC(c2ccc(N(C)C)cc2)N2CCc3ccccc32)cc1 (stereo not given)	inactive: 8.2%
Cc1ccc(NC(=O)Cn2cc(C(=O)c3ccco3)c3ccccc32)cc1	inactive: 4.14%
CCOc1ccc(-c2cccc(NS(=O)(=O)c3ccccc3C(F)(F)F)c2)nn1	inactive: 3.66%
O=S(=O)(c1ccc2nc(Nc3cccc(F)c3)ccc2c1)N1CCCC1	inactive: 12.1%
CCOc1ccccc1C1C(C(=O)Nc2ccccc2)=C(C)Nc2c(C(=O)Nc3ccc(F)cc3)cnn21 (stereo not given)	inactive: -19.6%
CCn1cc(C(=O)N2CCN(c3ccc(OC)cc3)CC2)c2cc(OC)c(OC)cc2c1=O	inactive: 13.3%
CCn1c(C(=O)N2CCCC(C(=O)N3CCN(c4ccccc4)CC3)C2)cc2sccc21 (stereo not given)	inactive: -2.6%
CCc1ccc(NC(=O)N2CCC(N3CCN(Cc4ccc(C)cc4)C(=O)C3=O)CC2)cc1	inactive: -12.5%
Cc1cccc(N2CCN(c3ccc(NC(=O)c4ccccc4)cc3C(=O)O)CC2C)c1 (stereo not given)	inactive: 1.83%
COc1ccc(-c2noc(CSc3nc(N)cc(=O)[nH]3)n2)cc1	inactive: -22.4%
Cc1cc2[nH]c(=O)c(=O)[nH]c2cc1S(=O)(=O)Nc1ccc(OC(F)(F)F)cc1	inactive: 6.97%
